Measured values taken from PubChem BioAssay AID1159614 (National Center for Advancing Translational Sciences (NCATS), 2016).
Out of some 45,000 compounds screened, about 65 (0.1%) were called active. Calls come from the whole dose curve; as a rule, active = well fitted activation curve with a large enough effect; inconclusive = small, poorly fitted or top-dose-only effect; inactive = no such curve, though single readings can be large or run the other way. The list shows a part of the results.

biological target: Galactocerebrosidase (Homo sapiens) (UniProt P54803); test: A Novel Cell-Based Assay to Identify Small Molecules for B -Galactocerebrosidase; details: 145M-Twi-hGALC-G270D cells (Twitcher mouse brain line with human GALC G270D), HMU-beta-Gal fluorescence, 48 h; series mostly up to 57.5 µM; activation: at the top concentration; note: 0% is about no effect; nearly all actives have a fitted effect of over 65% in size
In short: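 Fluorogenic HMU-b-Gal hydrolysis (0.1 mM final, pH 5.2 citrate-phosphate with 1 mg/mL sodium taurocholate; carbonate stop buffer) measures mutant GALC activity after compound treatment of live 145M-Twi Twitcher brain cells stably carrying human GALC-G270D, with wild-type GALC line alongside; activation sought.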

Chain of UniProt P54803 (P54803 whole entry, looked up): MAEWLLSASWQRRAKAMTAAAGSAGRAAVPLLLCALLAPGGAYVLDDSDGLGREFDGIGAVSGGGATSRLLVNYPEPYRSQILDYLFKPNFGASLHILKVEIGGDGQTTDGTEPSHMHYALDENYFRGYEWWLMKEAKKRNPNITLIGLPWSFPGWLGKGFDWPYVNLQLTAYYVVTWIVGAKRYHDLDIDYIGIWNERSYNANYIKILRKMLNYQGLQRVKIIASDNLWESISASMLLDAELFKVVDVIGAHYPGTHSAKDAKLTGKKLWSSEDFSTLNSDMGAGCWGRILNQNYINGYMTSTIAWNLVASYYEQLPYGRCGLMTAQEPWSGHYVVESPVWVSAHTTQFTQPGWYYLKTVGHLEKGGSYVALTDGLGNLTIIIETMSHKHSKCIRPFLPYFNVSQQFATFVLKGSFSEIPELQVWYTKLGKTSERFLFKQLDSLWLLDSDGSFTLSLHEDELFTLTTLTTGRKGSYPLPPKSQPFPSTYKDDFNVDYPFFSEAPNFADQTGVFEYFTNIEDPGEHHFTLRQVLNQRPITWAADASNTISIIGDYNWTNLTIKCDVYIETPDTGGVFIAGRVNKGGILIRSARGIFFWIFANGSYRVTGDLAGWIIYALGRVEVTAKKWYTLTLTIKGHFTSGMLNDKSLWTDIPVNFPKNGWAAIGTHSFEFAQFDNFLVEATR

activation, inactive:
Cn1cc(S(=O)(=O)N2CCCCC2)cc1C(=O)NCc1ccc(Cl)cc1 -10.5%
COc1ccc(NC(=O)C(NS(=O)(=O)c2cccc3nsnc23)c2ccccc2)cc1 (centres undefined) -6.13%
CCOc1cc(-c2nnc(SCC(=O)NCCCOC)nc2-c2ccc(OC)c(OCC)c2)ccc1OC -11.3%
Cc1cc(S(=O)(=O)Nc2ccc3[nH]c(=O)sc3c2)ccc1F -41.6%
COc1ccc(N2CC(NC(=O)Cc3cccs3)CC2=O)cc1OC (centres undefined) -4.42%
CCS(=O)(=O)N1CC(=O)N(c2ccc(C)c(C)c2)C(C)(C(=O)NC2CCCCCC2)C1 (centres undefined) -5.68%
COc1ccc(-c2cn3c(n2)sc2cc(C(=O)N4CCCCC4)ccc23)cc1 -0.707%
CCCN(C(=O)c1cn(CC(C)C)c(=O)c2cc(OC)c(OC)cc12)c1cccc(C)c1 -0.0512%
O=C(CN1CCN(Cc2ccc3c(c2)OCO3)CC1)N1c2ccccc2Sc2ccccc21 -14.9%
COc1ccc(CCNC(=O)c2ccc(Cn3c(=O)[nH]c4cc(OC)c(OC)cc4c3=O)cc2)cc1OC -13.5%
O=C(/C=C/c1ccccc1)OCc1ccccc1 -16.9%
Cc1cc(C)c(NC(=O)CSc2nc3c([nH]c4ccccc43)c(=O)n2C)c(C)c1 -4.55%
CCCOc1cccc(C2c3c(oc4ccc(F)cc4c3=O)C(=O)N2c2nc(C)c(C(C)=O)s2)c1 (centres undefined) -10.6%
COc1cc(NC(=O)C2CCN(c3nc4ccccc4nc3C(F)(F)F)CC2)cc(OC)c1 -9.53%
CCCCNC(=O)CN1CCN(c2ncc(NC(=O)c3ccc(Cl)cc3)cc2C(=O)O)CC1 -12%
CCOC(=O)C(=O)c1csc(NC=O)n1 -12.7%
CCc1ccccc1N(CC)C(=O)C1CCN(c2ncnc3c2nc2n3CCCCC2)CC1 -7.36%
COc1cccc2c1cc1c(=O)n(CC(=O)N3CCC(C)CC3)nc(C)n12 -26.7%
COCCCNc1nc(NCc2ccc(C)cc2)c2cnn(C)c2n1 -15.5%
CCN(C(=O)Cn1ncc2c(=O)oc3ccccc3c21)c1ccccc1F -16.3%
O=c1c2ccccc2n(Cc2cccc(Cl)c2)c(=O)n1Cc1ccccc1 -5.2%
Cc1cccc(N2CCN(C(=O)c3cc4ccc5cccnc5c4[nH]3)CC2C)c1 (centres undefined) -11.7%
CN1CCN(C(CNC(=O)c2c(F)cccc2F)c2ccc3c(c2)OCO3)CC1 (centres undefined) -7.91%
CCC(C)NC(=O)c1sc2nc3n(c(=O)c2c1C)CCC3 (centres undefined) -13.2%
COCCc1nn2c(=O)cc(COC(=O)c3ccc(Br)cc3)nc2s1 -2.84%
O=c1oc2ccccc2cc1-c1nc(-c2cccs2)no1 17.2%
CCC(=O)Nc1sc2c(c1C(=O)Nc1ccc(Br)cc1)CCCCC2 2.01%
COc1ccccc1-c1nc(SCC(=O)c2ccc(Cl)cc2)n[nH]1 -13.2%
CCS(=O)(=O)N1CCc2cc(C(=O)NCc3ccccc3Cl)ccc21 -12.1%
COc1ccccc1NC(=O)c1sc2nc(C)c(C(=O)Nc3ccc(C)cc3C)c(-c3ccccc3Cl)c2c1N -18.9%
Cc1ccc(NC(=O)CCN2C(=O)c3ccccc3Sc3ncccc32)c(Cl)c1 -2.98%
COc1cc(OC)cc(C(=O)NCCc2csc(-c3ccc(C(F)(F)F)cc3)n2)c1 -1.32%
Cc1ccc2oc(=O)c3cc(C(=O)NCCc4ccc(Cl)cc4)sc3c2c1 9.02%
CCc1ccccc1NC(=O)NC(CC)Cn1nnc2ccccc2c1=O (centres undefined) -4.32%
Cc1ccc(-n2nc3c(=O)n(C(C)C(=O)NCc4ccccc4C)nc(C)c3c2C)cc1 (centres undefined) 12.1%
CCOc1ccccc1NS(=O)(=O)c1cc(-c2cnc(C3CC3)o2)ccc1C -2.91%
O=C(c1cc2ccc3cccnc3c2[nH]1)N1CCN(c2cccc(Cl)c2)CC1 -22%
CCCCc1nn2c(=O)cc(COC(=O)c3ccccc3C)nc2s1 -17.5%
COc1ccc(NC(=O)C(C(C)C)N2Cc3ccccc3C2=O)cc1 (centres undefined) -19.3%
COc1ccc(-c2noc(CSc3nc4ccccc4[nH]3)n2)cc1 -17.3%
Cc1ccc(Nc2c(-c3ccc(C)cc3)nc3c(C)cccn23)cc1 -10.4%
CC(C)c1ccc(Nc2c(-c3ccc(N(C)C)cc3)nc3cnccn23)cc1 4.53%
O=C(NCCc1ccc(Cl)cc1)C(=O)NCC(c1cccs1)S(=O)(=O)c1ccccc1 (centres undefined) -8.04%
CC(=O)N1c2ccc(S(=O)(=O)NCCC(=O)N(C)Cc3ccccc3)cc2CC1C (centres undefined) -15.8%
COC(=O)c1cc2sc(C)cc2n1Cc1nc(-c2ccc(C)cc2)oc1C 1.93%
Cc1ccc(C)c(NC(=O)CSc2nc(=O)n(Cc3ccncc3)c3c2CCC3)c1 -15.2%
Cc1cc2n(n1)CCC(=O)N2Cc1ccc(C(=O)Nc2cccc(C(F)(F)F)c2)cc1 1.86%
CN(C)CCC(c1ccccc1)c1ccccn1 (centres undefined) -7.68%
O=C(Cc1ccc(Cl)cc1)Nc1ccc2oc(-c3ccccc3F)nc2c1 -19.4%
CNC(=O)c1c(NC(=O)Cc2coc3ccc(OC)cc23)sc2c1CCCC2 -12.2%
COc1cccc(CN(C(=O)c2oc3ccccc3c2C)C2CCS(=O)(=O)C2)c1 (centres undefined) -13.9%
CCc1cccc(C)c1NC(=O)CCS(=O)(=O)c1ccc2c(c1)oc(=O)n2C -20.1%
CCN1C(=O)C(Cc2nc3ccccc3c(=O)n2C)c2cc(C)ccc21 (centres undefined) 19.2%
CCc1ccc(S(=O)(=O)c2nnn3c2nc(NCc2ccccc2)c2cc(Cl)ccc23)cc1 -10.9%
O=C(Nc1ccc(Cl)cc1)c1cc(S(=O)(=O)NC2CCCCCC2)ccc1F -8.22%
COc1cc(NS(=O)(=O)c2ccc(-c3cc(C)no3)cc2)cc(OC)c1 -24.3%
Cc1ccc(-c2csc3ncnc(Nc4ccc(C(=O)O)cc4)c23)cc1 -19.5%
O=C(CN1CCN(Cc2ccccc2Cl)C1=O)NCCc1ccc(Cl)cc1 -11.1%
COc1ccccc1-c1nc2cc(NC(=O)c3ccccc3Cl)ccc2o1 1.98%
CCCNC(=O)C(Cc1ccccc1)NS(=O)(=O)c1ccc2c(c1)c(=O)n(C)c(=O)n2C (centres undefined) 10.9%
CCOc1ccc(C(=O)Nc2ccc3c(c2)OCCO3)cc1Br 7.05%
COc1ccc(Cl)cc1NC(=O)CN1Cc2ccccc2C1=O -13.7%
COc1ccc(Cn2c(C(=O)O)c(CNC3CCCCC3)c3ccc(C)cc32)cc1 -3.53%
COC(=O)c1ccc2c(c1)N(Cc1ccccc1)C(=O)c1ccccc1S2(=O)=O -11.7%
COc1ccc(OC)c(/C=C(\C#N)c2nc(-c3ccc(F)cc3)cs2)c1 -28.9%
Cc1nc(S(=O)(=O)N2CCN(c3ccccc3F)CC2)cn1C -2.77%
COc1ccccc1NC(=O)c1sc2nc3n(c(=O)c2c1C)N=C(c1cccc(Br)c1)CS3 -18%
COc1ccc2c(c1)CCc1c(C(=O)Nc3ccc(OC)cc3OC)noc1-2 -10.7%
Cc1ccc(SCc2nc(-c3ccc(C(=O)NCC(C)c4ccccc4)cc3)oc2C)cc1 (centres undefined) -11%
Cc1cccc(CNC(=O)CN2C(=O)CCn3nc(-c4cn(C)c5ccccc45)cc32)c1 -21.9%
CCCC12CN3CC(C)(CN(C1)C3c1ccc(OCc3ccccc3)cc1)C2=O (centres undefined) -16.9%
Nc1c(-c2nc(-c3ccc4c(c3)OCO4)cs2)c2ccccn2c1C(=O)c1ccc(Cl)cc1 -12.2%
CCOc1ccc(NC(=O)Cc2c[nH]c3ccccc23)cc1 -13.8%
O=C(O)c1ccc(NC(=O)c2ccc(Br)c(S(=O)(=O)N3CCCC3)c2)cc1 -1.21%
COc1cc(C(CC(=O)Nc2ncccc2C)N2Cc3ccccc3C2=O)cc(OC)c1OC (centres undefined) -13.7%
CCOC(=O)c1cnc2ccc(OCC)cc2c1Nc1ccc(OCc2ccccc2Cl)cc1 -0.698%
Cc1cccc(CNC(=O)CN2C(=O)CSc3c2c(C)nn3-c2ccccc2)c1 2.68%
CCN(c1ccccc1)S(=O)(=O)c1ccc(NC(=O)c2nc(SC(C)C)ncc2Cl)cc1 -14.6%
Cc1c(O)cccc1C(=O)N[C@@H](CSc1ccccc1)[C@H](O)CN1C[C@H]2CCCC[C@H]2C[C@H]1C(=O)NC(C)(C)C -14.2%
CCOc1ccc(Br)cc1C1NC(=O)c2c(sc3c2CCN(C)C3)N1 (centres undefined) -11.9%
O=C(OCc1cc(=O)n2nc(C3CC3)sc2n1)c1ccc(NC(=O)c2ccccc2F)cc1 6.09%
Cc1ccc(C(=O)N2CCC(C)CC2)cc1NC(=O)c1nsc2ccccc12 -15.2%
CC(=O)c1cc(-c2ccc(F)cc2)n(CCC(=O)Nc2nc3ccc(C)cc3s2)c1C -15.2%
Cc1ccc(S(=O)(=O)c2cc3cc(C(=O)Nc4ccc(C)cc4C)ccc3oc2=O)cc1 -7.78%
CC1CCCCN1CCCNC(=O)Cn1ncc2c3ccccc3n(C)c2c1=O (centres undefined) -15.6%
CCc1ccccc1NC(=O)c1ccc(F)c(S(=O)(=O)N2CCN(c3cccc(Cl)c3)CC2)c1 -1.21%
CC1CCN(S(=O)(=O)c2ccc3nc(N4CCN(c5ccc(F)cc5)CC4)ccc3c2)CC1 -22.2%
COCCCn1c(=N)c(C(=O)NC2CCCCC2)cc2c(=O)n3cc(C)ccc3nc21 -18.5%
COc1ccc(CCNc2ncnc3onc(C)c23)c(OC)c1 -10.4%
Cc1ccc(O)c(-c2n[nH]c3c2C(c2ccc(F)cc2)N(Cc2ccco2)C3=O)c1 (centres undefined) -12.8%
CC(C)OCCCNC(=O)CCCN1C(=O)CCn2nc(-c3cccn3C)cc21 -11.1%
O=C(COCc1cc(-c2cccs2)on1)Nc1cc(C(F)(F)F)ccc1Cl -11.3%
COc1cccc(C(=O)N(Cc2ccc(C)o2)C2CCS(=O)(=O)C2)c1 (centres undefined) -16.2%
COc1ccc(-c2cc(C(F)(F)F)nc(NCc3ccc(F)cc3)n2)cc1 -8.42%
CCOc1ccc(NC(=O)CSc2oc(-c3ccc(C)cc3)nc2S(=O)(=O)c2ccc(C)cc2)cc1 -17.8%
CCOc1ccc(N2CC(c3nc4ccccc4n3CCOc3ccccc3)CC2=O)cc1 (centres undefined) -9.48%
Cc1ccc(NC(=O)c2cc(S(=O)(=O)N3CCCCC3)c[nH]2)cc1F -12.5%
Cc1nc2ncnn2c(C)c1CCC(=O)NCc1cccc(Cl)c1 2.82%
Cc1nn(-c2ccccc2)c2sc(C(=O)Nc3cccc(Br)c3)cc12 -10%
